# Data as given in PubChem BioAssay AID485344 (National Center for Advancing Translational Sciences (NCATS), 2010).
# About 6,900 (2%) of roughly 340,000 compounds were called active. Cut-off read from the data, not from the text of the source: active = inhibition above about 30%; inactive = below that, where a call was filed. This is a selection; strong and weak results do not stand in their true shares. Entries without a call were filed so in the source.
# Molecular target: D(2) dopamine receptor (Homo sapiens) (UniProt P14416)
# Assay: HTS Assay for Allosteric Antagonists of the Human D2 Dopamine Receptor: Primary Screen for Antagonists; note: 0% is about no effect
# Settings: HEK293 TREx D2 cells, calcium flux, dopamine EC80; at 10 µM; stronger effect = higher value
# Method in brief: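 Antagonism is scored as inhibition of an EC80 dopamine-evoked calcium signal in a force-coupled, tetracycline-inducible HEK293 T-REx D2 line, with compound present 180 s before agonist.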
# Sequence of UniProt P14416 (P14416 whole entry, looked up): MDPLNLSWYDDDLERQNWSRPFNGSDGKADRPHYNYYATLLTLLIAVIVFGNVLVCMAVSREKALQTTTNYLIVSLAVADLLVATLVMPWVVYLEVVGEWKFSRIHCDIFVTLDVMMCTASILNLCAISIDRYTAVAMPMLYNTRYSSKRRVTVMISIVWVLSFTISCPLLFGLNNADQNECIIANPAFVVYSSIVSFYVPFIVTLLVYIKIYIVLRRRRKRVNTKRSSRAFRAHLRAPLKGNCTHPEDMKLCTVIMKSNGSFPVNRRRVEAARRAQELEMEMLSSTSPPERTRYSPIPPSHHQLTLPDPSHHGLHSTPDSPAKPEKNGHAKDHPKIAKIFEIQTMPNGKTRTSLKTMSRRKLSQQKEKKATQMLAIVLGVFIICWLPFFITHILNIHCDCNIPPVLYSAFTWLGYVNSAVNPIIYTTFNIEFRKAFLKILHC
row,SMILES,inhibition
1,CCOC(=O)c1c(C)oc2ncnc(Nc3ccc(OC)cc3OC)c12,-7.28%
2,COc1ccccc1NC(=O)CSC1=Nc2ccccc2C2=NC(CCC(=O)NCCc3ccccc3)C(=O)N12 (stereo not given),7.86%
3,COC(=O)c1ccc(Cn2cnc3nc4c(cc3c2=O)CCCC4)cc1,19.5%
4,CC(=O)N1CCc2c(sc3c2c(=O)n(Cc2ccccc2)c(=O)n3Cc2ccc(C)cc2)C1,10.6%
5,CC(=O)c1ccc(N2CCN(C(=O)C3CCN(S(=O)(=O)c4c(C)noc4/C=C/c4ccc(C)cc4)CC3)CC2)cc1,-0.0044%
6,O=C(NCCN1CCN(c2ccccc2Cl)CC1)Nc1ccccc1,active: 52.5%
7,CC1CC(C)CN(CCOCCSc2ccccc2)C1 (stereo not given),active: 64.8%
8,Cc1ccc(C(=O)c2c(N)c(-c3nc(-c4ccc5c(c4)OCO5)cs3)c3ccccn23)cc1C,1.53%
9,Cc1cccc(N2CCN(C(=O)Cc3c(C(=O)O)c(C)cn3C)CC2)c1C,25.3%
10,Cc1ccc(C(=O)Nc2cc(-c3nc4ncccc4o3)ccc2C)c(C)c1,3.43%
11,COCc1nn2cc(-c3ccc(C)cc3)nc2s1,-5.09%
12,CCc1ccc2oc(C(=O)Nc3cccc(Cl)c3C)cc(=O)c2c1,-11.1%
13,COc1ccc(NC(=O)CCCN2C(=O)C(c3ccccc3)Oc3cccnc32)c(OC)c1 (stereo not given),10.1%
14,CC(C)CCN(Cc1ccco1)C(=O)c1cc2c(s1)-c1ccccc1OC2,-17.1%
15,CN(C)S(=O)(=O)c1cccc(NC(=O)c2ccc(OC(F)(F)F)cc2)c1,active: 46.3%
16,O=C(COc1ccccc1)OCc1cc(=O)n2nc(C3CC3)sc2n1,7.63%
17,Cc1cc2c(cc1NC(=O)c1ccccc1C)n(C)c(=O)c(=O)n2C,-10.7%
18,CCC(Cc1ccccc1)NC(=O)CN1C(=O)COc2ccc(S(=O)(=O)N3CCCCCC3)cc21 (stereo not given),-4.34%
19,COc1ccc(CCNC(=O)CCCn2c(=O)c3cccn3c3ccccc32)cc1OC,-4.43%
20,CCOC(=O)C1=C(O)C(=O)N(c2ccccc2)C1c1cccc([N+](=O)[O-])c1 (stereo not given),active: 33%
21,O=C(Cn1c(-c2ccco2)nc2ccccc21)N1CCCCC1,active: 46.5%
22,O=C(CCn1c(=O)sc2ccccc21)NCc1cccs1,active: 32.2%
23,O=C(OCc1nnc(-c2ccccc2)o1)c1cc(S(=O)(=O)N2CCOCC2)c(Cl)cc1Cl,active: 37.5%
24,CCOCCCNC(=O)C1CCN(C(=O)c2cc3sccc3n2C)CC1,-6.1%

row,SMILES,inhibition
1,Cc1cc(C)n(-c2nnc(C)n2NC(=O)c2cccc(Cl)c2)n1,active: 46.8%
2,CCOc1ccccc1CNCCNC(=O)c1nonc1N,-8.62%
3,Cc1ccccc1Nc1sc(C(=O)c2ccccc2)c(N)c1C(=O)NCc1ccc(Cl)cc1,-17.5%
4,Cc1ccc2c(c1)c1c(c(=O)n(-c3ccccc3C)c(=O)n1CC(=O)N1CCCC1)n2C,-7.02%
5,Cc1ccc2ncc3c(-c4ccc(F)cc4)nn(-c4cccc(F)c4)c3c2c1,2.16%
6,COc1cc(OC)c(NC(=O)CC(c2cccs2)N2Cc3ccccc3C2=O)cc1Cl (stereo not given),7.55%
7,Cc1ccc(Cn2cc(C(=O)c3ccc(F)cc3)c(=O)c3cc4c(cc32)OCCO4)cc1,-24.6%
8,CCc1ccccc1NC(=O)CSCc1cnn(-c2ccccc2)c1-n1cccc1,-19.8%
9,COc1cccc(C(=O)N2c3nc(-c4ccco4)nn3C3(CCCCC3)[C@@H]3CCCC[C@@H]32)c1,-5.09%
10,CCc1nn(C(C)C(=O)N2CCN(c3cccc(C(F)(F)F)c3)CC2)c(=O)c2cc3occc3n12 (stereo not given),-2.39%
11,CC(CN(C)C)CN1c2ccccc2Sc2ccccc21 (stereo not given),active: 76.1%
12,COc1cc(OC)cc(-c2nc3nc(C)c(CCC(=O)Nc4ccc(F)cc4F)c(C)n3n2)c1,-14.7%
13,CCCNC(=O)c1c(C)nn(-c2cccc(C)c2)c1-n1cccc1,-1.76%
14,Cc1ccccc1N1CCN(CCCOc2ccc3c(C)cc(=O)oc3c2)CC1,active: 109%
15,CCOC(=O)C1CCN(S(=O)(=O)c2cc3c4c(c2)CC(=O)N4CCC3)CC1,-25%
16,COc1ccc(CCNC(=S)NC2CCN(Cc3ccccc3)CC2)cc1,active: 71.2%
17,CN(C)S(=O)(=O)n1cc(/C=C(\NC(=O)c2ccccc2Cl)C(=O)NCCCn2ccnc2)c2ccccc21,-4%
18,O=C(NCCc1ccccc1)C1(c2cccs2)CCOCC1,-20.3%
19,CCN(CC)CCNC(=O)c1nn(-c2ccc(OC)c(Cl)c2)c(=O)c2c1c1ccccc1n2C,-6.79%
20,O=C(CSc1nc2c(c(=O)[nH]1)CN(Cc1ccc(F)cc1)CC2)Nc1ccccc1Cl,16.3%
21,O=C(NCCc1ccccc1Cl)c1ccc2c(c1)nc1n2CCOC1,-12.3%
22,O=C(NC1CC2CCCC(C1)N2Cc1ccccc1)c1cccc(Cl)c1 (stereo not given),active: 90.4%
23,Cc1ccc(C(=O)n2nc(-c3ccco3)nc2NCc2cccs2)cc1,-0.365%
24,CCCn1nc(C(=O)Nc2ccc3nc(C)sc3c2)c2ccccc2c1=O,active: 31%

row,SMILES,inhibition
1,C=CCn1c(SCC(=O)Nc2ccc(C(=O)OCC)cc2)nnc1-c1sc(N)nc1C,active: 31.4%
2,Cc1nc(N2CCOCC2)c2c(C(=O)NCCc3ccccc3)c(C)oc2n1,-7.14%
3,CCCCn1cc2c(c1-c1ccccc1Br)c(=O)n(C)c(=O)n2C,9.79%
4,Cc1ccc(C(=O)Nc2nc3ccc(S(=O)(=O)N4CCCC4)cc3s2)cc1,3.95%
5,Cc1ccc(-c2nnc(SCC(=O)NC3CCCC3)nc2-c2ccc(C)cc2)cc1,1.76%
6,CCOc1ccc(NC(=O)CCC(=O)N2CC(C)Oc3ccc(C)cc32)cc1 (stereo not given),7.21%
7,COc1ccc(CN2C(=O)c3oc4ccc(F)cc4c(=O)c3C2c2ccc(O)cc2)cc1 (stereo not given),5.41%
8,O=C(Nc1ccc(F)cc1F)C(Cc1ccccc1)N1Cc2ccccc2C1=O (stereo not given),-22.7%
9,COc1cccc(-n2c(-c3ccc(Cl)cc3)cc3c2CC(C)(C)CC3=O)c1,-16.3%
10,COc1ccc(C)cc1NC(=O)C1CCN(S(=O)(=O)c2c(C)noc2/C=C/c2ccco2)CC1,13.2%
11,O=C(CCC(=O)N1CC2CCCN2c2ccccc21)NCc1cccc(Cl)c1 (stereo not given),6.37%
12,Nc1c(C(=O)NCc2ccc(Cl)cc2Cl)nnn1Cc1ccc(Br)cc1,10.8%
13,COc1ccc(OCC(=O)Nc2cc(-c3ccccc3F)nn2-c2ccccc2)cc1,-27%
14,Cc1ccc(S(=O)(=O)NCC2CCC(C(=O)NCc3ccc(F)cc3)CC2)cc1 (stereo not given),5.43%
15,CCc1ccc(CNC(=O)c2cc3cc(S(=O)(=O)N4CCCCC4)ccc3n2C)cc1,17%
16,COC(=O)CCNCCSc1nnc(-c2ccco2)n1Cc1ccccc1,active: 32.9%
17,COc1cccc(-c2cn3c(n2)sc2cc(C(=O)NCCCc4ccccc4)ccc23)c1,-2.06%
18,CSc1ccc(CNC(=O)C2CCCN(S(=O)(=O)N(C)c3ccc(F)cc3)C2)cc1 (stereo not given),0.869%
19,CCOc1ccc(CCNC(=O)CCCn2c(=O)c3cccn3c3cccnc32)cc1OCC,4.52%
20,CCc1ccc2c(c1)c(=O)c(S(=O)(=O)c1ccc(Cl)cc1)cn2CC,8.51%
21,O=C(CC1(O)C(=O)N(CCc2ccccc2)c2ccc(Br)cc21)c1ccc(F)cc1 (stereo not given),8.4%
22,Cc1nn(Cc2ccc(Cl)c(Cl)c2)c(C)c1NC(=O)c1noc2c1CCc1ccccc1-2,24.2%
23,COc1cccc(CNCCSc2nnnn2C)c1OCc1ccccc1,2.4%
24,CCc1cc(C(=O)N2CCN(S(=O)(=O)c3ccc(Cl)cc3)CC2)sc1C,active: 38.5%

row,SMILES,inhibition
1,COC(=O)CC1Oc2ccccc2-n2cc(-c3ccc(C)cc3)nc21 (stereo not given),2.01%
2,O=C(Cc1ccccc1)Nc1sc2c(c1C(=O)Nc1ccccc1)CCCCC2,-12.9%
3,COc1cc(C2CC(=O)Nc3c2c(C)nn3-c2nc(C)cc(C)n2)cc(OC)c1O (stereo not given),-4.68%
4,Cc1ccc(CSc2nnc(-n3c(=O)c(C#N)cc4c(=O)n5cccc(C)c5nc43)s2)cc1,0.489%
5,COc1cccc(-c2nn3c(=O)cc(CN4CCN(S(=O)(=O)c5ccc(C)cc5)CC4)nc3s2)c1,-5.21%
6,CSc1nc(=O)c2c(n1C)NC(=O)CC2c1ccccc1OC(C)C (stereo not given),-6.12%
7,COc1ccc(-c2nc3ccccc3n3c(-c4cccc(C)c4)c4c(=O)n(C)c(=O)n(C)c4c23)cc1,-5.25%
8,CNC(=S)NC1CC2CCCC(C1)N2Cc1ccc(C)cc1 (stereo not given),active: 81.4%
9,COCCCn1c(=N)c(C(=O)NCC2CCCO2)cc2c(=O)n3cc(C)ccc3nc21 (stereo not given),-0.51%
10,Cc1ccc(Nc2c(-c3ccc(N(C)C)cc3)nc3nc[nH]n23)cc1,-23.6%
11,Cc1ccc2c(=O)cc(C(=O)Nc3ccc(S(=O)(=O)N4CCC(C)CC4)cc3)oc2c1C,-9.79%
12,CC(=O)c1ccc(S(=O)(=O)Nc2ccc(-c3ccc(N4CCCCCC4)nn3)cc2)cc1,-20.9%
13,COC(=O)c1ccc(CN2CCc3ccc(NC(=O)c4ccncc4)cc3C2)cc1,active: 34.6%
14,Cc1ccc(-n2ncc(C(=O)NCCc3ccccc3)c2C2CCN(C(=O)OC(C)(C)C)CC2)c(C)c1,2.6%
15,COc1ccccc1C(=O)N(CCN(C)C)c1nc2cc(C)cc(C)c2s1,active: 38.1%
16,COc1cccc(NC(=O)Cn2c(=O)cc(C)c3c(C)nn(-c4cccc(F)c4)c32)c1,9.03%
17,CC1CCCCN1C(=O)Cn1c(=O)n(-c2ccc(Cl)cc2)c(=O)c2c3c(sc21)CCC3 (stereo not given),10.4%
18,CCN(CC)c1nc2c(-c3cccc(Br)c3)nnn2c2ccccc12,-28.1%
19,COc1ccc(CNC(=O)c2ccc(NC(=O)N3CC4CCCN4c4ccccc43)cc2)cc1 (stereo not given),-9.17%
20,CC(C)n1cnc2c(N(C)c3ccccc3)nc(N(CCN(C)C)Cc3ccccc3)nc21,active: 33.8%
21,COc1cccc(NC(=O)C2CCN(S(=O)(=O)c3cccc4nonc34)CC2)c1,-2.34%
22,COc1cc(C(=O)OCc2cc(=O)n3nc(C4CCCCC4)sc3n2)cc(OC)c1OC,22.4%
23,CCOC(=O)c1cc(C)n(CC2CCC(C(=O)Nc3ccc(C(C)=O)cc3)CC2)c1C (stereo not given),-12.3%
